Measurements published in patent publication EP0622356A1, “Indoloylguanidine derivatives as inhibitors of sodium-hydrogen exchange” (SUMITOMO PHARMACEUTICALS COMPANY, LIMITED, priority 1993, dated 1994).
Where a name gives a salt, the structure may show the parent alone. At least one compound was matched to its structure with a doubt left.

Biological target: T1, Na⁺/H⁺ exchanger (Rattus norvegicus, UniProt P26431)
T1 construct: using the vascular smooth muscle cells isolated from the rat thoracic aorta; endogenous in cells; host or cells: primary vascular smooth muscle cells isolated from rat thoracic aorta
Test: Inhibition of Na⁺/H⁺ exchanger activity in vitro (change in cell viability during acid loading)
Assay type: cell-based
Design: key: * : not measurable due to cytotoxicity
Conditions: cells marked *: not measurable due to cytotoxicity
Description: The experiment was performed by modifying the method of Mungre et al. described in Exp. Cell Res., 193, 236 (1991). That is, inhibition of the Na⁺/H⁺ exchanger activity was evaluated by the change in cell viability during acid loading, using the vascular smooth muscle cells isolated from the rat thoracic aorta.
The compounds of the present invention shown in Examples were evaluated by the minimum effective concentration (MEC) for the inhibition of the Na⁺/H⁺ exchanger activity.

T1 sequence (P26431 whole entry): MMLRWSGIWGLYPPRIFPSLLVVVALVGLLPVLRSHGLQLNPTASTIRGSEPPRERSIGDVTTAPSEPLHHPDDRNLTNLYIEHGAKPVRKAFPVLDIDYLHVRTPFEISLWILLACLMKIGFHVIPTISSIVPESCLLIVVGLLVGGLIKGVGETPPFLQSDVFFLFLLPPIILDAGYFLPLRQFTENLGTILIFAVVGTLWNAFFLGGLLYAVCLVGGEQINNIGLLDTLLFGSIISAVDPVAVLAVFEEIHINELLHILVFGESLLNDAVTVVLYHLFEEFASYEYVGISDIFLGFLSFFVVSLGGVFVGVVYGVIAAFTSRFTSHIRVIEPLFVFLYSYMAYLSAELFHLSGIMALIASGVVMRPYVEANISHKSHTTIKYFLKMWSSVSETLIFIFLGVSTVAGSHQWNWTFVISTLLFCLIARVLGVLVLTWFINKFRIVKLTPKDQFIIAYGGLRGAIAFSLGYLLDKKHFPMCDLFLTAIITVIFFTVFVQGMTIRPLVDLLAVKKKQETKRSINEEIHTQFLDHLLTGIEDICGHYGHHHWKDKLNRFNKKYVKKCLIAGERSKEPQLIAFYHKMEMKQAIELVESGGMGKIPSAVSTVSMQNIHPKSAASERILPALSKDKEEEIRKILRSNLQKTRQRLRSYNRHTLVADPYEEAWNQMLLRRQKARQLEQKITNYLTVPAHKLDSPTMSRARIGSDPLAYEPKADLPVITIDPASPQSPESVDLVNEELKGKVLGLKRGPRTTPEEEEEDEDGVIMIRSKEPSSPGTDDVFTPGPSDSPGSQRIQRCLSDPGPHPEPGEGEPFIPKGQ

With `Cn1c(C(=O)NC(=N)N)cc2c(OCc3ccccc3)cccc21` [Example 46, 4-Benzyloxy-1-methyl-2-indoloylguanidine hydrochloride] the “Inhibition of Na^+/H^+ Exchanger MEC” value was “*”.
`Cn1c(C(=O)NC(=N)N)cc2cccc(OCCCc3ccccc3)c21` [Example 60, 1-Methyl-7-(3-phenylpropoxy)-2-indoloylguanidine hydrochloride] was tested, and the “Inhibition of Na^+/H^+ Exchanger MEC” value was “*”.
`Cn1c(C(=O)NC(=N)N)cc2ccc(OCCCc3ccccc3)cc21` [Example 68, 1-Methyl-6-(3-phenylpropoxy)-2-indoloylguanidine hydrochloride] was tested, and the “Inhibition of Na^+/H^+ Exchanger MEC” value was “*”.

Same assay, conditions: minimum effective concentration; vascular smooth muscle cells isolated from the rat thoracic aorta; change in cell viability during acid loading

Compared with `CC(C)n1ccc2ccc(C(=O)NC(=N)N)cc21` [Example 42, 1-Isopropyl-6-indoloylguanidine hydrochloride], `CC(C)n1c(C(=O)NC(=N)N)cc2ccccc21` [Example 84, 1-isopropyl-2-indoloylguanidine] is 10-fold lower in “Inhibition of Na^+/H^+ Exchanger MEC” value: 10 µM for the first, 1.0 µM for the second.

Going from `N=C(N)NC(=O)c1ccc2ccn(Cc3ccccc3)c2c1` [Example 43, 1-Benzyl-6-indoloylguanidine hydrochloride] to `N=C(N)NC(=O)c1ccc2c(ccn2Cc2ccccc2)c1` [Example 82, 1-benzyl-5-indoloylguanidine hydrochloride], the “Inhibition of Na^+/H^+ Exchanger MEC” value falls from 10 µM to 3.0 µM (3.3-fold).

First: Cc1c(C(=O)NC(=N)N)n(C)c2ccccc12 [Example 47, 1,3-Dimethyl-2-indoloylguanidine hydrochloride]
Second: Cn1c(C(=O)NC(=N)N)cc2c(Br)cccc21 [Example 56, 4-Bromo-1-methyl-2-indoloylguanidine hydrochloride]
The “Inhibition of Na^+/H^+ Exchanger MEC” value of the first is 100-fold higher: 3.0 µM for the first, 0.03 µM for the second.

Compared with `Cn1c(C(=O)NC(=N)N)cc2cccc(-c3ccccc3)c21` [Example 48, 1-Methyl-7-phenyl-2-indoloylguanidine hydrochloride], `Cn1c(C(=O)NC(=N)N)cc2cccc(OCCc3ccccc3)c21` [Example 59, 1-Methyl-7-(2-phenylethoxy)-2-indoloylguanidine hydrochloride] is 3-fold lower in “Inhibition of Na^+/H^+ Exchanger MEC” value: 3.0 µM for the first, 1.0 µM for the second.

Going from `CC(=O)c1cccc2c1cc(C(=O)NC(=N)N)n2C` [Example 49, 4-Acetyl-1-methyl-2-indoloylguanidine hydrochloride] to `C=C(C)c1cccc2c1cc(C(=O)NC(=N)N)n2C` [Example 76, 4-Isopropenyl-1-methyl-2-indoloylguanidine hydrochloride], the “Inhibition of Na^+/H^+ Exchanger MEC” value falls from 3.0 µM to 0.3 µM (10-fold).

`Cn1c(C(=O)NC(=N)N)cc2ccc(OCc3ccccc3)cc21` [Example 50, 6-Benzyloxy-1-methyl-2-indoloylguanidine hydrochloride] and `Cn1c(C(=O)NC(=N)N)cc2ccc(OCCc3ccccc3)cc21` [Example 67, 1-Methyl-6-(2-phenylethoxy)-2-indoloylguanidine hydrochloride] are the same in “Inhibition of Na^+/H^+ Exchanger MEC” value: 1.0 µM for the first, 1.0 µM for the second.

`CCOc1cccc2c1cc(C(=O)NC(=N)N)n2C` [Example 51, 4-Ethoxy-1-methyl-2-indoloylguanidine hydrochloride] and `CC(C)COc1cccc2c1cc(C(=O)NC(=N)N)n2C` [Example 57, 4-Isobutyloxy-1-methyl-2-indoloylguanidine hydrochloride] are the same in “Inhibition of Na^+/H^+ Exchanger MEC” value: 1.0 µM for the first, 1.0 µM for the second.

`N=C(N)NC(=O)c1cc2ccccc2n1CCC(N)=O` [Example 52, 1-(2-Carbamoylethyl)-2-indoloylguanidine hydrochloride] and `CCCn1c(C(=O)NC(=N)N)cc2ccccc21` [Example 53, 1-Propyl-2-indoloylguanidine hydrochloride] are the same in “Inhibition of Na^+/H^+ Exchanger MEC” value: 1.0 µM for the first, 1.0 µM for the second.

First: COCCn1c(C(=O)NC(=N)N)cc2ccccc21 [Example 54, 1-(2-Methoxyethyl)-2-indoloylguanidine hydrochloride]
Second: CN(C)CCn1c(C(=O)NC(=N)N)cc2ccccc21 [Example 80, 1-(2-Dimethylaminoethyl)-2-indoloylguanidine hydrochloride]
The “Inhibition of Na^+/H^+ Exchanger MEC” value of the first is 10-fold lower: 0.3 µM for the first, 3.0 µM for the second.

Going from `Cn1c(C(=O)NC(=N)N)cc2c(F)cccc21` [Example 55, 4-Fluoro-1-methyl-2-indoloylguanidine hydrochloride] to `CC(C)c1cccc2c1cc(C(=O)NC(=N)N)n2C` [Example 77, 4-Isopropenyl-1-methyl-2-indoloylguanidine hydrochloride], the “Inhibition of Na^+/H^+ Exchanger MEC” value rises from 0.1 µM to 0.3 µM (3-fold).

`Cn1c(C(=O)NC(=N)N)cc2c(Cl)ccc(OCc3ccccc3)c21` [Example 61, 7-Benzyloxy-4-chloro-1-methyl-2-indoloylguanidine hydrochloride] and `CN(CCOc1ccc(Cl)c2cc(C(=O)NC(=N)N)n(C)c12)Cc1ccccc1` [Example 75, 7-[2-(N-Benzyl-N-methylamino)ethoxy]-4-chloro-1-methyl-2-indoloylguanidine hydrochloride] are the same in “Inhibition of Na^+/H^+ Exchanger MEC” value: 0.3 µM for the first, 0.3 µM for the second.

`Cn1c(C(=O)NC(=N)N)cc2cccc(OCC(N)=O)c21` [Example 63, 7-Carbamoylmethoxy-1-methyl-2-indoloylguanidine hydrochloride] and `COc1cccc2cc(C(=O)NC(=N)N)n(C)c12` [Example 83, 7-methoxy-1-methyl-2-indoloylguanidine hydrochloride] are the same in “Inhibition of Na^+/H^+ Exchanger MEC” value: 0.3 µM for the first, 0.3 µM for the second.

Compared with `Cn1c(C(=O)NC(=N)N)cc2c(Cl)ccc(OCC(N)=O)c21` [Example 64, 7-Carbamoylmethoxy-4-chloro-1-methyl-2-indoloylguanidine hydrochloride], `CN(C)CCOc1ccc(Cl)c2cc(C(=O)NC(=N)N)n(C)c12` [Example 65, 4-Chloro-7-(2-dimethylaminoethoxy)-1-methyl-2-indoloylguanidine hydrochloride] is 30-fold higher in “Inhibition of Na^+/H^+ Exchanger MEC” value: 0.01 µM for the first, 0.3 µM for the second.

First: Cn1c(C(=O)NC(=N)N)cc2ccc(OCC(N)=O)cc21 [Example 66, 6-Carbamoylmethoxy-1-methyl-2-indoloylguanidine hydrochloride]
Second: Cn1c(C(=O)NC(=N)N)cc2ccc(S(C)(=O)=O)cc21 [Example 69, 1-Methyl-6-methylsulfonyl-2-indoloylguanidine hydrochloride]
The “Inhibition of Na^+/H^+ Exchanger MEC” value of the first is 10-fold lower: 0.3 µM for the first, 3.0 µM for the second.

Compared with `Cn1c(C(=O)NC(=N)N)cc2c(S(C)(=O)=O)cccc21` [Example 70, 1-Methyl-4-methylsulfonyl-2-indoloylguanidine hydrochloride], `COCCn1c(C(=O)NC(=N)N)cc2c(Cl)cccc21` [Example 71, 4-Chloro-1-(2-methoxyethyl)-2-indoloylguanidine hydrochloride] is 100-fold lower in “Inhibition of Na^+/H^+ Exchanger MEC” value: 3.0 µM for the first, 0.03 µM for the second.

Going from `N=C(N)NC(=O)c1cc2c(Cl)cccc2n1CCC(N)=O` [Example 72, 1-(2-carbamoylethyl)-4-chloro-2-indoloylguanidine hydrochloride] to `CCN(CC)CCn1c(C(=O)NC(=N)N)cc2c(Cl)cccc21` [Example 79, 4-Chloro-1-(2-diethylaminoethyl)-2-indoloylguanidine hydrochloride], the “Inhibition of Na^+/H^+ Exchanger MEC” value rises from 0.1 µM to 3.0 µM (30-fold).

Compared with `Cn1c(C(=O)NC(=N)N)cc2c(Cl)ccc(OCCN3CCCC3)c21` [Example 73, 4-Chloro-1-methyl-7-[2-(N-pyrrolidinyl)ethoxy]-2-indoloylguanidine hydrochloride], `CN(C)CCCOc1ccc(Cl)c2cc(C(=O)NC(=N)N)n(C)c12` [Example 74, 4-Chloro-7-(3-dimethylaminopropoxy)-1-methyl-2-indoloylguanidine hydrochloride] is 3-fold lower in “Inhibition of Na^+/H^+ Exchanger MEC” value: 0.3 µM for the first, 0.1 µM for the second.

`NC(=O)Cn1c(C(=O)N=C(N)N)cc2ccccc21` [Example 85, 1-Carbamoylmethyl-2-indoloylguanidine hydrochloride] and `Cn1c(C(=O)N=C(N)N)cc2cccc(N)c21` [Example 90, 7-Amino-1-methyl-2-indoloylguanidine hydrochloride] are the same in “Inhibition of Na^+/H^+ Exchanger MEC” value: 10 µM for the first, 10 µM for the second.

Compared with `NC(N)=NC(=O)c1cc2cc(Cl)ccc2[nH]1` [Example 86, 5-chloro-2-indoloylguanidine hydrochloride], `Cn1c(C(=O)N=C(N)N)cc2ccc(N)cc21` [Example 87, 6-amino-1-methyl-2-indoloylguanidine] is 10-fold lower in “Inhibition of Na^+/H^+ Exchanger MEC” value: 10 µM for the first, 1.0 µM for the second.

In the case of `CC(C)n1ccc2c(C(=O)NC(=N)N)cccc21` [Example 44, 1-Isopropyl-4-indoloylguanidine hydrochloride], the “Inhibition of Na^+/H^+ Exchanger MEC” value is reported as greater than 10 µM.
For `N=C(N)NC(=O)c1cccc2c1ccn2Cc1ccccc1` [Example 45, 1-Benzyl-4-indoloylguanidine hydrochloride], the “Inhibition of Na^+/H^+ Exchanger MEC” value was greater than 10 µM.
In the case of `Cn1c(C(=O)NC(=N)N)cc2c(C(=O)O)cccc21` [Example 62, 4-Carboxy-1-methyl-2-indoloylguanidine hydrochloride], the “Inhibition of Na^+/H^+ Exchanger MEC” value is reported as greater than 10 µM.
With `CCN(CC)CCn1c(C(=O)NC(=N)N)cc2ccccc21` [Example 78, 1-(2-Diethylaminoethyl)-2-indoloylguanidine hydrochloride] the “Inhibition of Na^+/H^+ Exchanger MEC” value was greater than 10 µM.
In the case of `CN(C)CCn1c(C(=O)NC(=N)N)cc2c(Cl)cccc21` [Example 81, 4-Chloro-1-(2-dimethylaminoethyl)-2-indoloylguanidine hydrochloride], the “Inhibition of Na^+/H^+ Exchanger MEC” value is reported as greater than 10 µM.
For `Cn1c(C(=O)N=C(N)N)cc2c(N)cccc21` [Example 88, 4-Amino-1-methyl-2-indoloylguanidine hydrochloride], the “Inhibition of Na^+/H^+ Exchanger MEC” value was greater than 10 µM.
For `Cn1c(C(=O)N=C(N)N)cc2cc(N)ccc21` [Example 89, 5-Amino-1-methyl-2-indoloylguanidine hydrochloride], the “Inhibition of Na^+/H^+ Exchanger MEC” value was greater than 10 µM.
